Each structure is given as a SMILES string.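 Protocol summary: plate cells (96-well), add compound at 5 concentrations, incubate 48 h, interpolate endpoints linearly. The concentration for 50% growth inhibition is given as GI50.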 Calls of active or inactive are those of the source. Cut-off read from the data, not from the text of the source: active = GI50 up to about 1.1 µM and inactive = higher.

For this test, the system named is NCI-H322M. The test is described as follows: NCI-60 cell line screen, 48 h.
Regarding `O=C(O)CCN1C(=S)CSC1=S`, the GI50 was inactive: > 100 µM. For the compound `N#CC1=C(N)N(c2ccccc2)C(c2ccco2)C1(C#N)C#N` (stereo not given), the GI50 is inactive: 19.5 µM. The figure for `CC1=NN=C(NCCN(C)C)C/C1=C/c1ccccc1Cl` is inactive: > 100 µM; for `N#Cc1c(-c2ccco2)c2c(n(C3OC(CO)C(O)C(O)C3O)c1=S)CCCC2` (stereo not given) it is inactive: > 100 µM. Next, `C=C=C(C)[Si](C)(C)C`: inactive: > 100 µM; `CCNC(C)(C)C(SS)c1ccc(Br)cc1` (stereo not given): inactive: > 100 µM. Next, `CCCCn1cc(C(=O)O)c(=O)c2c3sccc3ccc21`: inactive: > 100 µM; `O=C(O)CC12CC3CC(CC(O)(C3)C1)C2`: inactive: > 100 µM; `C=C1C(=O)O[C@H]2[C@H]3O[C@@H](C[C@@H]12)[C@@]1(C)CC[C@H](O1)C(C)=CCC[C@H]3C`: inactive: 4.92 µM. For the compound `CC(C)=CCC/C(C)=C/CCC1(C)C=Cc2c(c3ccccc3oc2=O)O1` (stereo not given), the GI50 was inactive: 17.2 µM. The figure for `CC1OC(O[C@H]2C3C=CO[C@@H](OC4OC(CO)C(O)C(O)C4O)C3[C@@]3(COC(=O)/C=C/c4ccc(O)cc4)O[C@@H]23)C(O)C(O)C1O` (stereo not given in full) is inactive: > 100 µM. The figure for `O=C1c2ccccc2NC(c2cc(Cl)cc(Cl)c2O)N1CCc1ccccn1` (stereo not given) is inactive: 61 µM. Next, `CCC(c1ccccc1)c1cc(C(C)(C)C)cc(C(C)(C)C)c1O` (stereo not given): inactive: 17.9 µM. Regarding `Cn1c(-c2ccccc2)cc(-c2ccsc2)c1-c1ccsc1`, the GI50 is inactive: > 100 µM. Next, `COC(=O)/C(=N\NC(=O)c1ccccc1O)C(C#N)c1ccccc1` (stereo not given): inactive: 23.7 µM. The figure for `O=C(Cn1cc(-c2ccccc2)nn1)NC1CCCC1` is inactive: > 100 µM; for `C=CCc1cc(OC)c2c(c1)C(O)CC(c1ccc(OC)c(OC)c1)O2` (stereo not given) it is inactive: > 100 µM; for `C(=C\c1ccccc1)/Cn1nc(-c2ccccc2)nc1-c1cnccn1` it is inactive: > 100 µM. For the compound `O=c1[nH]n(Cc2ccccc2CCl)c2ccc([N+](=O)[O-])cc12`, the GI50 was inactive: 43.7 µM. The figure for `COc1ccc2[nH]c3c(C)c4ccnc(NCCCN(C)CCCNC(=O)NCCCN(C)CCCNc5nccc6c(C)c7[nH]c8ccc(OC)cc8c7c(C)c56)c4c(C)c3c2c1` is active: 0.929 µM; for `O=C1N2CCC[C@H]2CS1(=O)=O` it is inactive: 22.7 µM. In the case of `COc1cc(C2OC[C@@H]3C(=O)OC[C@H]23)cc(O)c1OC` (stereo not given in full), the GI50 is inactive: > 100 µM. The figure for `Cc1coc2c1CC1(C)C(CCC(O)C1C)C2` (stereo not given) is inactive: > 100 µM.

Consider `CC(=O)N1N(c2ccc([N+](=O)[O-])cc2)C(=O)C1(C)C`, for which the GI50 is inactive: 29.4 µM. Next, `O=C(CC(Cl)=C(Cl)Cl)c1ccccc1`: inactive: > 100 µM; `Cc1cn([C@@H]2C[C@](C)(CO)N(C)O2)c(=O)[nH]c1=O`: inactive: > 100 µM; `COc1cccc(OCC(=N/NC(=O)c2ccncc2)/N=C/c2ccncc2)c1`: inactive: > 100 µM. The figure for `COC(=O)c1cc2c3c(c1)Oc1cc(C(=O)OC)cc4c1C3c1c(cc(C(=O)OC)cc1O4)O2` is inactive: 58.5 µM; for `COC(C[C@H]1CCCC[C@]1(O)/C(=C\CO[Si](C(C)C)(C(C)C)C(C)C)Sc1ccccc1)OC` it is inactive: 47.8 µM; for `CC1OC(OC2C(OC(=O)[C@@H]3CC(C)(C)C[C@H]4C5=CC[C@@H]6[C@@]7(C)C[C@H](O)[C@H](OC8OC(CO)C(O)C(O)C8O)[C@@](C)(CO)[C@@H]7[C@H](O)C[C@@]6(C)[C@]5(C)CC[C@@]34C)OCC(O)C2O)C(O)C(O)C1O` (stereo not given in full) it is inactive: > 7.5 µM. The figure for `CNS(=O)(=O)NN(C)S(=O)(=O)c1ccc(F)cc1` is inactive: > 100 µM; for `CCOC(=O)CCN1C(=O)c2c(NC(=O)C(=O)O)cccc2S1(=O)=O` it is inactive: > 100 µM; for `Cc1[nH]c(-c2ccccc2)c(O)c1C(=O)OC1CC(C)CCC1C(C)C` (stereo not given) it is inactive: 16.6 µM. `c1cc(NC2=NCCO2)c2c(c1)OCO2`: the GI50 is inactive: > 100 µM. Next, `CCOC(=O)N1CCN(c2ccc3ccc(N)nc3n2)CC1`: inactive: > 100 µM; `ON=C1CCC(c2ccccc2)CC1` (stereo not given): inactive: > 100 µM; `CCn1nc(C)c2c1C(=O)NC(C)C(=O)N2` (stereo not given): inactive: > 100 µM. Next, `CC(C)(CN1CCCCC1)C(=O)/C=C/c1ccc(/C=C/C(=O)C(C)(C)CN2CCCCC2)cc1`: active: 0.986 µM. Consider `CCOC(=O)C1(Cc2ccccc2)Cc2cc3c(cc2C1=O)CCC3` (stereo not given), for which the GI50 is inactive: > 100 µM. The figure for `Cc1ccccc1S(=O)(=O)Nn1cnc2ccc(S(=O)(=O)Nc3ccc(Cl)cc3)cc2c1=O` is inactive: > 100 µM; for `CCC1(CC)C(=O)OC(=O)C1(CC)CC` it is inactive: > 100 µM. Next, `CCCCCCC(=O)c1ccc2ccccc2c1O`: inactive: > 100 µM; `Cc1c(C(=O)/C=C/c2ccc(N(C)C)cc2)c(=O)n(-c2ccccc2)n1C`: inactive: > 100 µM. The figure for `CCNCC(=O)Nc1ccc2c(c1)C(=O)c1ccc(NC(=O)CNCC)cc1C2=O` is inactive: 1.58 µM. For `CCCN1CN(C(C(=O)N[C@@H]2C(=O)N3C2SC(C)(C)C3C(=O)O)c2ccccc2)CSC1=S` (stereo not given in full), the GI50 was inactive: > 100 µM. As to `Cc1ccnc(NC(NC(=O)c2ccccc2)(C(F)(F)F)C(F)(F)F)c1`, the GI50 was inactive: > 100 µM. The figure for `CC(C)[C@H]1NC(=O)[C@H]2N=C(S[C@H]2C)[C@@H]2CCCN2C(=O)[C@H](Cc2ccccc2)NC(=O)[C@@H]2CSC(=N2)[C@@H](Cc2ccccc2)NC(=O)[C@@H]2CSC1=N2` is inactive: > 50 µM. The figure for `C#C/C=C\CCCCCCCCCCCCCC/C=C\CCCCC#CC(O)C#CCCCC/C=C\CCCCCC/C=C/C(O)C#C` (stereo not given) is inactive: 17.8 µM; for `O[C@H]1[C@H](O)[C@H](O)CN2CCC[C@@H](O)[C@H]12` it is inactive: > 100 µM; for `CCCC(=O)Oc1c2ccsc2c(OC(=O)CCC)c2ccsc12` it is inactive: 4.09 µM.

Take `CC(C)(C)OC[C@H](O)CC#N`: the GI50 is inactive: > 100 µM. In the case of `O=C(O)CCCC(=O)Nn1c(Cc2ccc(Cl)cc2)n[nH]c1=O`, the GI50 was inactive: > 100 µM. Next, `O=c1oc2ccccc2cc1-c1csc(Nc2cc(Cl)cc(Cl)c2)n1`: inactive: > 48 µM; `CC1(C)OC1CC/C(=C/CBr)CBr` (stereo not given): inactive: 19.4 µM; `COC(=O)[C@H]1ON2O[C@@H](O[C@H]3CCCC[C@@H]3C(C)(C)c3ccccc3)C[C@@H]3CC[C@H]1[C@@]32C`: inactive: > 100 µM. The figure for `Nc1ccc(-c2nc3ccc(Cc4ccc5nc(-c6ccc(N)cc6)oc5c4)cc3o2)cc1` is inactive: > 100 µM; for `Nc1ncnc2c1ncn2C1OC(CSC(F)(F)F)C(O)C1O` (stereo not given) it is inactive: > 100 µM; for `COc1cc(OCc2nc3cc(C(F)(F)F)ccc3nc2-c2ccccc2)cc(OC)c1OC` it is inactive: 57.3 µM. The figure for `C#CC[N+](CCO)(CCO)CCCCCCCCCCCCCCCCCC` is inactive: 14.6 µM; for `O=c1[nH]c2c(C(F)(F)F)c(Cl)c(-c3ccccc3)nc2o1` it is inactive: 10.8 µM; for `O=C=NCCCCCCN1C(=O)N2C(c3ccccc3)N(CCCCCCN=C=O)C(=O)N2C1c1ccccc1` (stereo not given) it is inactive: > 100 µM. Consider `CN1c2ccc(O)c(O)c2-c2cc(O)cc3c2C1CCC3` (stereo not given), for which the GI50 is inactive: 33.3 µM. Next, `Cn1c(=O)c(Cl)c(N=[N+]=[N-])c2ccccc21`: inactive: > 100 µM; `O=C(OC[C@H]1C[C@H]2C(=O)OCCC[C@H]2O1)c1ccccc1`: inactive: > 100 µM; `O=C(c1ccccc1)C1N=NCC1c1ccc([N+](=O)[O-])cc1` (stereo not given): inactive: 57.9 µM. Next, `Nc1nc(I)nc2c1ncn2C1OC(COS(N)(=O)=O)C(O)C1O` (stereo not given): active: < 0.01 µM; `CC(C)(C)C(=O)/C=C(\OB(F)F)C(C)(C)C`: inactive: > 100 µM; `N=C(N)SCCN1CCCCC1`: inactive: 77.3 µM. Next, `CCN(CC)CCC(=O)NC1c2ccccc2Oc2c(C)cccc21` (stereo not given): inactive: > 100 µM; `N/N=C(\N)SCc1ccc(N=C=S)cc1`: inactive: > 100 µM. As to `C=C1C(=O)OC2/C=C(\C)CC/C=C(/C)CC(OC(=O)/C(=C/CO)CO)C12` (stereo not given), the GI50 is inactive: > 100 µM. As to `OCCN1CCN(CCO)Cc2ccccc2OCCOc2ccccc2C1`, the GI50 was inactive: > 100 µM. Take `COc1cc(OC)cc(N2CCC(c3c(N)nc(N)nc3Cl)CC2)c1`: the GI50 is inactive: > 100 µM. `COC(=O)C(/C(=N/N)C(=O)Nc1cccc(O)c1)c1nc2ccccc2nc1O` (stereo not given): the GI50 is inactive: > 100 µM. Turning to `O=C(/C=C/c1ccc(Cl)c(Cl)c1)C1CCC(Cl)CC1` (stereo not given), the GI50 was inactive: 33.5 µM. The figure for `CN(C)c1ccc(/C=C2/SC(=S)NC2=O)cc1` is inactive: > 100 µM; for `C=CCn1c(=O)c(C(=O)Nc2nc(C34CC5CC(CC(C5)C3)C4)cs2)c(O)c2ccccc21` it is inactive: 45.5 µM. Next, `O=C(Cc1ccccc1)N/N=C/c1ccccc1O`: inactive: 18.8 µM; `C[C@@H](NC1CCCC[C@H]1O)c1ccccc1` (stereo not given in full): inactive: > 100 µM; `Nc1ccc(-c2nc3ccc(F)cc3s2)cc1`: inactive: 34.5 µM. Next, `Cc1cccc(/C=C2\CCCc3ccccc3C2=O)c1`: inactive: 25.8 µM. Consider `CC1CCCC2(CC[N+](C)(CCC[N+](C)(C)C)CC2)C1` (stereo not given), for which the GI50 is inactive: > 100 µM. For `O=C1C(c2c(O)[nH]c3ccc(Cl)cc23)=Nc2ccccc21`, the GI50 is inactive: 4.1 µM.

Turning to `Cc1cccc(-c2cc(O)c3ccc(C)nc3n2)c1`, the GI50 is active: 0.366 µM. For the compound `Cc1cc2c(ccc3c(C)cc(=O)oc32)o1`, the GI50 is inactive: > 100 µM.
